Results published in the supplement of paper PMC4166925.
± gives the standard deviation of the averaged measurements. In all, about 33,000 sequences were measured (“E-score (dimensionless, -0.5 to 0.5)”: median about -0.046, highest 2% from about 0.36 on). Some of the results follow.

system: T1, SpTbr T-box DNA-binding domain (GST fusion); experiment: PBM E-score of 8-mer (E-score (dimensionless, -0.5 to 0.5)); Tbr is Tbrain of the sea star Patiria miniata (Pm) or the sea urchin Strongylocentrotus purpuratus (Sp); higher = stronger binding preference; most listed sequences are background and not binding sites; conditions: the construct has about 5 more residues each side
T1 sequence: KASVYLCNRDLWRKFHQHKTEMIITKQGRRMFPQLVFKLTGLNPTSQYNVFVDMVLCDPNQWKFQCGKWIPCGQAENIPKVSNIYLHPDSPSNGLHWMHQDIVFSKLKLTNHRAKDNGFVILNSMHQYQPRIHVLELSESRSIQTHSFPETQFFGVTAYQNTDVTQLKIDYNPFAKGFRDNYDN
Summary of the method: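 GST-fused Tbr T-box DNA-binding domains (the whole T-box plus about five flanking residues) were expressed in BL21 E. coli at 20 °C and purified by glutathione affinity chromatography. Universal Agilent oligonucleotide arrays were made double-stranded by primer extension, incubated with 200 nM protein in PBS (pH 7.5), then scanned and quantified. Every ungapped 8-mer was scored from probe intensities. The Universal PBM Analysis Suite gave each word an enrichment E-score, averaged over duplicate arrays.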

In order of rising “PBM E-score of 8-mer” value:
1. CAGAGACC  -0.343 ± 0.046
2. TAATCCTA  -0.339 ± 0.014
3. AGATGTCC  -0.309 ± 0.003
4. CTACCCAG  -0.302 ± 0.024
5. CGGACATC  -0.287 ± 0.1
6. GGAATGCA  -0.286 ± 0.048
7. AGCCCAAT  -0.276 ± 0.042
8. CAAGAAGA  -0.275 ± 0.042
9. CTGGATAC  -0.27 ± 0.011
10. ACGTAATA  -0.268 ± 0.026
11. AGGGGGAT  -0.262 ± 0.033
12. GGGGCTAC  -0.26 ± 0.02
13. CTCCATAA  -0.257 ± 0.031
14. CAGGGGAG  -0.251 ± 0.039
15. GGCCAAGA  -0.247 ± 0.012
16. TAGCCTGA  -0.2453 ± 0.0021
17. CAGGAAGC  -0.243 ± 0.042
18. AGGGTTCC  -0.233 ± 0.011
19. AGGCAATC  -0.232 ± 0.064
20. GTAGGGAC  -0.222 ± 0.024
21. CCTAGGGA  -0.214 ± 0.017
22. GGTACATA  -0.212 ± 0.05
23. CTTAGAAA  -0.209 ± 0.049
24. ATTGGGTA  -0.207 ± 0.04
25. TATGGAAA  -0.205 ± 0.03
26. AAGCGATC  -0.203 ± 0.015
27. ATGGCCTC  -0.202 ± 0.025
28. GGATAGAC  -0.202 ± 0.041
29. AGTGGATC  -0.201 ± 0.058
30. GGTCAAGA  -0.2007 ± 0.00072
31. CGCTGAAA  -0.196 ± 0.005
32. AGAGACTG  -0.196 ± 0.075
33. CCCTTCCC  -0.195 ± 0.045
34. GTACGGTA  -0.191 ± 0.013
35. AGTTAGAT  -0.191 ± 0.0088
36. AAGTTCTG  -0.188 ± 0.025
37. GGCCCTTA  -0.184 ± 0.063
38. GGTTAGAC  -0.182 ± 0.072
39. AAAACCGG  -0.178 ± 0.015
40. ATGACTGC  -0.176 ± 0.014
41. TACATAAA  -0.174 ± 0.0034
42. CCGCATCC  -0.174 ± 0.075
43. CCCTGCAG  -0.16 ± 0.046
44. ATATGGCG  -0.157 ± 0.076
45. GAGCGCCC  -0.156 ± 0.12
46. ACGGTACT  -0.153 ± 0.0092
47. GATAGGAC  -0.15 ± 0.054
48. AGTCTCCC  -0.149 ± 0.013
49. CTGAAGCA  -0.141 ± 0.0054
50. CTAAGACC  -0.128 ± 0.049
51. ATTATAGA  -0.125 ± 0.035
52. CAGACAGA  -0.117 ± 0.048
53. ACTCCAAT  -0.115 ± 0.019
54. TCCTCCAA  -0.113 ± 0.021
55. AATAGAAG  -0.111 ± 0.0034
56. TGGGACCA  -0.11 ± 0.029
57. AACCTCGG  -0.108 ± 0.049
58. GCCGAGAC  -0.108 ± 0.15
59. CGGCCGAG  -0.107 ± 0.042
60. CCAAAGTC  -0.1042 ± 0.00045
61. GCCTCCTA  -0.102 ± 0.035
62. GGTACGAC  -0.102 ± 0.0037
63. TCAATAGA  -0.1 ± 0.035
64. CAGCAATC  -0.0968 ± 0.013
65. GCATTACA  -0.0965 ± 0.02
66. CATCCCAA  -0.0964 ± 0.067
67. AAAAAACC  -0.0953 ± 0.011
68. AAGCTGGG  -0.0949 ± 0.031
69. ATCGCTTG  -0.0947 ± 0.051
70. TAGCCTAA  -0.0895 ± 0.044
71. AGCGGACG  -0.0886 ± 0.041
72. TGGTACCA  -0.086 ± 0.026
73. GGGTTAGA  -0.0855 ± 0.059
74. GGGCGAAA  -0.0835 ± 0.036
75. CGGTTACG  -0.0824 ± 0.064
76. ATCCGAAA  -0.0782 ± 0.078
77. CATATGAG  -0.0764 ± 0.067
78. ATTCTGCC  -0.0759 ± 0.078
79. GGCTGGAA  -0.0723 ± 0.015
80. AACATGAT  -0.0693 ± 0.025
81. CACGAACC  -0.0691 ± 0.083
82. CCACTGGG  -0.0679 ± 0.051
83. CCTTTGTA  -0.0607 ± 0.053
84. AGAGCCAA  -0.0561 ± 0.026
85. ACTAGAAC  -0.0532 ± 0.0099
86. GAGGCGGC  -0.0529 ± 0.087
87. GAAAACGC  -0.0489 ± 0.024
88. ACCGAGCA  -0.0399 ± 0.074
89. ACGATCAT  -0.0399 ± 0.051
90. ATGACTTG  -0.0315 ± 0.04
91. CGGGATCA  -0.031 ± 0.0063
92. AAGTACGT  -0.0297 ± 0.078
93. CACTCCGC  -0.0254 ± 0.02
94. CCCCAAGC  -0.0248 ± 0.0081
95. GCAACTCA  -0.0217 ± 0.065
96. ATCACCGC  -0.0213 ± 0.03
97. CGCCGAAA  -0.021 ± 0.075
98. ACGAATGC  -0.0199 ± 0.0011
99. AACTAAGT  -0.0152 ± 0.016
100. TAGCAGGA  -0.0122 ± 0.014
101. GAATTTTA  -0.0119 ± 0.058
102. ACTTTCAG  -0.00936 ± 0.026
103. AACCGAGC  -0.00754 ± 0.025
104. GTTTATCA  -0.00507 ± 0.13
105. AGCACACG  -0.00428 ± 0.025
106. CTGAACTC  -0.00299 ± 0.0053
107. CGCAAGAG  0.00988 ± 0.026
108. GCTGGGGA  0.00996 ± 0.029
109. AAAATAAC  0.0155 ± 0.052
110. GAGTAAAA  0.0191 ± 0.06
111. GGCTACTA  0.0206 ± 0.016
112. ACCTACAT  0.0216 ± 0.051
113. ACTAAATG  0.024 ± 0.056
114. CGTTTTGC  0.0266 ± 0.023
115. AGCGAGTC  0.0305 ± 0.044
116. GCTGGACA  0.0335 ± 0.046
117. AGCTATAT  0.0355 ± 0.024
118. GCACTCCA  0.0376 ± 0.031
119. ATTTATTC  0.0408 ± 0.033
120. ACAATAAC  0.0418 ± 0.034
121. ACTGGTGC  0.0433 ± 0.034
122. CATCAACG  0.0446 ± 0.02
123. ACCAAGAC  0.0459 ± 0.089
124. AAAACCCG  0.0484 ± 0.011
125. GGCAGGAA  0.0496 ± 0.023
126. CATATCTC  0.0558 ± 0.021
127. ACAAAAGG  0.0677 ± 0.051
128. TCAATTCA  0.0683 ± 0.018
129. ACTCGCCA  0.0725 ± 0.023
130. CTCGATGC  0.0748 ± 0.0089
131. CCGCGAGG  0.0756 ± 0.063
132. AGTGCAAG  0.0816 ± 0.059
133. GAGAATGC  0.0866 ± 0.093
134. ACATCACT  0.0901 ± 0.025
135. CAAAAACC  0.0904 ± 0.0047
136. CTCTTCGA  0.0979 ± 0.038
137. ACAACGCC  0.0994 ± 0.0078
138. ACGACATG  0.1 ± 0.034
139. CTCATAGC  0.11 ± 0.039
140. CACGTGAA  0.113 ± 0.013
141. CACTTAGG  0.117 ± 0.04
142. GATCGATA  0.125 ± 0.056
143. CCACAGAA  0.14 ± 0.11
144. CCGGCGAC  0.143 ± 0.06
145. ATGTGTCC  0.144 ± 0.014
146. ACTTTTCA  0.152 ± 0.068
147. GCGTGCAA  0.184 ± 0.014
148. CTCTTCGC  0.186 ± 0.037
149. CGCGCGGA  0.189 ± 0.07
150. CTCGCCTC  0.192 ± 0.054
151. CTGCTCGC  0.195 ± 0.02
152. GTCGGCAC  0.209 ± 0.042
153. CTATTCAC  0.212 ± 0.03
154. CGCGGACC  0.219 ± 0.039
155. GGGCGAGA  0.222 ± 0.0041
156. ACGAGTTG  0.228 ± 0.025
157. CACAATTC  0.233 ± 0.011
158. AAACACAC  0.246 ± 0.034
159. AGTGCCAC  0.25 ± 0.013
160. CCTTCACG  0.278 ± 0.019
161. ATGTGAGG  0.28 ± 0.041
162. ACTTGCCA  0.28202 ± 3.5e-05
163. ACGCGTTA  0.2834 ± 0.0018
164. AAGTGCCG  0.2891 ± 0.0011
165. CGTGAGAG  0.29 ± 0.029
166. AACACGAT  0.291 ± 0.022
167. GAGTGTGC  0.296 ± 0.015
168. AAGAGTGT  0.301 ± 0.014
169. CTGACAGC  0.318 ± 0.0042
170. CTCGCACA  0.37 ± 0.016
171. AATCGCAC  0.4074 ± 0.00091
172. GCGTGAAA  0.4597 ± 0.0039
